Our source for the AUC and IC50 values is the supplement of paper PMC4967469.

The term IC50 denotes the point on the concentration scale where inhibition reaches its midpoint.

Test in all cases: Viability of human cancer cell lines after 72 h of drug (GDSC screen)
Compound in one experiment: COc1cc(C(=O)NC2CCN(C)CC2)ccc1Nc1ncc2c(n1)N(C1CCCC1)CCC(=O)N2C(C)C [XMD11-85h]
The following applies: top dose 10 µM; top dose inferred. On the procedure: (§1)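 Human cancer cell lines in 384-well plates, medium with 10% serum, drug for 72 h over a 256-fold dose range (nine 2-fold or five 4-fold steps up to the top dose). Adherent lines were fixed and stained with the nucleic acid dye Syto60, suspension lines read with resazurin; signal relative to control wells, capped at 0 and 100%. One two-parameter sigmoid per drug and line, fitted in a mixed model over all curves with the slope shared within a line.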

Compound in the next experiment: Cc1cc([C@@H](C)Nc2ccccc2C(=O)O)c2nc(N3CCOCC3)cc(=O)n2c1 [AZD6482]
On the procedure: as §1

Compound in another experiment: Cn1ncnc1[C@H]1c2n[nH]c(=O)c3cc(F)cc(c23)N[C@@H]1c1ccc(F)cc1 [BMN-673]
The conditions noted are these: top dose 10 µM; top dose inferred. The method, then:
as §1

Compound in another experiment: NS(=O)(=O)OC[C@@H]1C[C@@H](n2ccc3c(N[C@H]4CCc5ccccc54)ncnc32)C[C@@H]1O [MLN4924]
The conditions noted are these: top dose 1 µM; top dose inferred. On the procedure:
as §1

The mark [1] stands for this setting: top dose 5 µM, screen: GDSC drug entry 1066, top dose inferred.
Where [2] appears, read: top dose 5.12 µM, screen: GDSC drug entry 156.

A lower IC50 marks a more sensitive line; a fit beyond the top or the lowest dose is shown as a bound at that dose. The AUC spans the tested range (256-fold, ending at the top dose) of the same fit: 1 means no effect, lower means more sensitive. Any top dose called inferred is not printed in the source and was worked back from the curve model. For some of these results: Drugs with an entry number were screened twice under separate entries, and the two screens often disagree.

Turning to JHU-029 (head and neck, adherent), the AUC turned out to be 0.934 in the experiment with XMD11-85h, 0.975 with AZD6482 (setting [1]), 0.726 with BMN-673 and 0.792 in the experiment with MLN4924. The IC50 with XMD11-85h is > 10 µM; with AZD6482 (setting [1]), > 5 µM; in the experiment with BMN-673 it was 3.23 µM; in the experiment with MLN4924, 0.573 µM.

With “JJN-3 (haematopoietic neoplasm, suspension)”, the AUC with XMD11-85h was 0.91; in the experiment with AZD6482 (setting [1]), 0.986; with AZD6482 (setting [2]), 0.97; with BMN-673 it was 0.981; with MLN4924 it was 0.896. Further, the IC50 was 9.67 µM with XMD11-85h; > 5 µM with AZD6482 (setting [1]); > 5.12 µM with AZD6482 (setting [2]); > 10 µM in the experiment with BMN-673; 0.839 µM in the experiment with MLN4924.

As to “JURL-MK1 (chronic myeloid leukaemia, suspension)”, the AUC came out at 0.973 with XMD11-85h; 0.959 with AZD6482 (setting [1]); 0.987 with AZD6482 (setting [2]); 0.683 with BMN-673; 0.813 with MLN4924. The IC50 with XMD11-85h was > 10 µM; with AZD6482 (setting [1]), > 5 µM; with AZD6482 (setting [2]), > 5.12 µM; with BMN-673, 2.03 µM; with MLN4924, 0.539 µM.

For K2 (melanoma, adherent), the AUC was found to be 0.927 with XMD11-85h; 0.974 with AZD6482 (setting [1]); 0.885 with AZD6482 (setting [2]); 0.879 with BMN-673; 0.817 with MLN4924. Further, the 50% inhibitory concentration (IC50) is > 10 µM with XMD11-85h; > 5 µM with AZD6482 (setting [1]); > 5.12 µM with AZD6482 (setting [2]); > 10 µM with BMN-673; 0.786 µM with MLN4924.

For the cell line “KCL-22 (chronic myeloid leukaemia, suspension)”, the AUC with XMD11-85h was 0.969; in the experiment with AZD6482 (setting [1]) it was 0.99; with AZD6482 (setting [2]) it was 0.991; with BMN-673, 0.952; in the experiment with MLN4924, 0.822. Moreover, the IC50 with XMD11-85h was > 10 µM; in the experiment with AZD6482 (setting [1]), > 5 µM; with AZD6482 (setting [2]), > 5.12 µM; with BMN-673 it was > 10 µM; with MLN4924 it was 0.466 µM.

For KELLY (neuroblastoma, adherent), the AUC with XMD11-85h is 0.983; in the experiment with AZD6482 (setting [1]) it was 0.974; with AZD6482 (setting [2]), 0.966; with BMN-673 it was 0.414; in the experiment with MLN4924 it was 0.699. In addition, the IC50 was > 10 µM with XMD11-85h; > 5 µM in the experiment with AZD6482 (setting [1]); > 5.12 µM with AZD6482 (setting [2]); 0.372 µM in the experiment with BMN-673; 0.214 µM in the experiment with MLN4924.

With KGN (ovary, adherent), the AUC amounted to 0.955 with XMD11-85h; 0.973 with AZD6482 (setting [1]); 0.746 in the experiment with AZD6482 (setting [2]); 0.638 in the experiment with BMN-673; 0.885 with MLN4924. Further, the IC50 with XMD11-85h was > 10 µM; with AZD6482 (setting [1]), > 5 µM; with AZD6482 (setting [2]), 1.93 µM; with BMN-673, 1.64 µM; in the experiment with MLN4924, > 1 µM.

In the case of KINGS-1 (glioma, adherent), the AUC with XMD11-85h amounted to 0.97; in the experiment with AZD6482 (setting [1]), 0.837; with AZD6482 (setting [2]), 0.818; in the experiment with BMN-673 it was 0.898; in the experiment with MLN4924, 0.908. The IC50 is > 10 µM in the experiment with XMD11-85h; > 5 µM in the experiment with AZD6482 (setting [1]); 4.41 µM in the experiment with AZD6482 (setting [2]); > 10 µM in the experiment with BMN-673; > 1 µM in the experiment with MLN4924.

As to KMH-2 (thyroid, adherent), the AUC with XMD11-85h was determined as 0.963; with AZD6482 (setting [1]), 0.945; with AZD6482 (setting [2]) it was 0.969; with BMN-673, 0.646; in the experiment with MLN4924, 0.858. The IC50 with XMD11-85h is > 10 µM; in the experiment with AZD6482 (setting [1]) it was > 5 µM; with AZD6482 (setting [2]) it was > 5.12 µM; with BMN-673, 1.51 µM; with MLN4924, 0.68 µM.

Turning to KNS-42 (glioma, adherent), the AUC worked out at 0.935 with XMD11-85h; 0.936 with AZD6482 (setting [1]); 0.799 with AZD6482 (setting [2]); 0.923 with BMN-673; 0.959 with MLN4924. The IC50 was > 10 µM with XMD11-85h; > 5 µM with AZD6482 (setting [1]); 3.03 µM in the experiment with AZD6482 (setting [2]); > 10 µM with BMN-673; > 1 µM in the experiment with MLN4924.

As to KYAE-1 (oesophagus, suspension), the AUC in the experiment with XMD11-85h was determined as 0.9; with AZD6482 (setting [1]), 0.917; in the experiment with BMN-673, 0.98; with MLN4924, 0.983. For the same cell line, the IC50 was > 10 µM in the experiment with XMD11-85h, > 5 µM with AZD6482 (setting [1]), > 10 µM in the experiment with BMN-673 and > 1 µM with MLN4924.

As for KYSE-50 (oesophagus, adherent), the AUC in the experiment with XMD11-85h is 0.975; in the experiment with AZD6482 (setting [1]) it was 0.847; with AZD6482 (setting [2]), 0.941; with BMN-673, 0.92; in the experiment with MLN4924, 0.923. Further, the IC50 in the experiment with XMD11-85h is > 10 µM; with AZD6482 (setting [1]), 3.2 µM; in the experiment with AZD6482 (setting [2]), > 5.12 µM; with BMN-673, > 10 µM; with MLN4924, > 1 µM.

Take KYSE-450 (oesophagus, adherent): the AUC turned out to be 0.968 with XMD11-85h, 0.925 in the experiment with AZD6482 (setting [2]), 0.937 with BMN-673 and 0.74 in the experiment with MLN4924. Also, the IC50 in the experiment with XMD11-85h is > 10 µM; with AZD6482 (setting [2]), > 5.12 µM; with BMN-673, > 10 µM; in the experiment with MLN4924, 0.289 µM.
